The list shows a part of the results.

In the assay the target is T1, MBP-FoxP1dN (Mus musculus, UniProt P58462 326-579).
T1 sequence: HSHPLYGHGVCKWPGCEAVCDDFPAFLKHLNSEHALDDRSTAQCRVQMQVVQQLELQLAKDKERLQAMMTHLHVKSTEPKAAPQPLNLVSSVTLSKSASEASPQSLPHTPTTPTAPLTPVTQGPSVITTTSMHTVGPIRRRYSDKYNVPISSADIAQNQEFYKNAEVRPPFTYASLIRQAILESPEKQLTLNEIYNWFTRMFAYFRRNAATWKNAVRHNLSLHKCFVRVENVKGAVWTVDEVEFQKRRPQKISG
The experiment in a line: PD-seq (MBP pull-down with sequencing); 20 mM Tris-HCl pH 7.5, 100 mM NaCl, 1.5 mM MgCl2, 0.4 uM protein, 0.1 uM dsDNA library, 30 min, room temperature, amylose pull-down; high values mean tight binding. The settings on record: protein: recombinant; tags: His6-MBP; chain copies: 2; dsDNA, one strand shown. In short, it runs like this:
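Binding is the reads-per-million enrichment of pull-down relative to input, pooled across replicates. For this, 0.4 µM His6-MBP-tagged mouse FoxP3 or FoxP1 fragment lacking the N-terminus, made in E. coli, was incubated with 0.1 µM Klenow-filled double-stranded degenerate DNA library for 30 min at room temperature in Tris pH 7.5 buffer with NaCl and MgCl2. Complexes bound to amylose resin were washed three times before proteinase K released the DNA for PCR barcoding and Illumina sequencing.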
Consider “GATGATTGTTCTCCCAGCTGATGAATTTCGAGCATCGAGTAAACAAATTTTCCTAATCTTTCTGTTCAAGCGCCATCTAC”, for which the binding signal is 0.954 RPM ratio (pull-down/input).

In the case of “GATGATTGTTCTCCCAGCTGATGAATTCTAATGATCGAGTAAACAAATTTTCCTAATCTTTCTGTTCAAGCGCCATCTAC”, the binding signal was 0.963 RPM ratio (pull-down/input).

Consider “GATGATTGTTCTCCCAGCTGATGAATTAAATGCTTCGAGTAAACAAATTTTCCTAATCTTTCTGTTCAAGCGCCATCTAC”, for which the binding signal was 1.15 RPM ratio (pull-down/input).

In the case of “GATGATTGTTCTCCCAGCTGATGAATTAATAAGATCGAGTAAACAAATTTTCCTAATCTTTCTGTTCAAGCGCCATCTAC”, the binding signal was 1.03 RPM ratio (pull-down/input).

Consider “GATGATTGTTCTCCCAGCTGATGAATTTCGGATCTCGAGTAAACAAATTTTCCTAATCTTTCTGTTCAAGCGCCATCTAC”, for which the binding signal was 0.769 RPM ratio (pull-down/input).

For the sequence “GATGATTGTTCTCCCAGCTGATGAATTATAGTCATCGAGTAAACAAATTTTCCTAATCTTTCTGTTCAAGCGCCATCTAC”, the binding signal was 1.06 RPM ratio (pull-down/input).

“GATGATTGTTCTCCCAGCTGATGAATTGGGCGCGTCGAGTAAACAAATTTTCCTAATCTTTCTGTTCAAGCGCCATCTAC”: the binding signal was 1.01 RPM ratio (pull-down/input).

“GATGATTGTTCTCCCAGCTGATGAATTGTTATTCTCGAGTAAACAAATTTTCCTAATCTTTCTGTTCAAGCGCCATCTAC”: the binding signal is 2.03 RPM ratio (pull-down/input).

Consider “GATGATTGTTCTCCCAGCTGATGAATTAAGCGCATCGAGTAAACAAATTTTCCTAATCTTTCTGTTCAAGCGCCATCTAC”, for which the binding signal was 1.27 RPM ratio (pull-down/input).

Consider “GATGATTGTTCTCCCAGCTGATGAATTAGGGGTATCGAGTAAACAAATTTTCCTAATCTTTCTGTTCAAGCGCCATCTAC”, for which the binding signal was 0.939 RPM ratio (pull-down/input).

Turning to “GATGATTGTTCTCCCAGCTGATGAATTCGCGAACTCGAGTAAACAAATTTTCCTAATCTTTCTGTTCAAGCGCCATCTAC”, the binding signal was 0.828 RPM ratio (pull-down/input).

On to “GATGATTGTTCTCCCAGCTGATGAATTGGGAAAATCGAGTAAACAAATTTTCCTAATCTTTCTGTTCAAGCGCCATCTAC”, for which the binding signal is 1.02 RPM ratio (pull-down/input).

For “GATGATTGTTCTCCCAGCTGATGAATTCTGCCCCTCGAGTAAACAAATTTTCCTAATCTTTCTGTTCAAGCGCCATCTAC”, the binding signal was 0.764 RPM ratio (pull-down/input).

As for “GATGATTGTTCTCCCAGCTGATGAATTACGAGGATCGAGTAAACAAATTTTCCTAATCTTTCTGTTCAAGCGCCATCTAC”, the binding signal is 0.932 RPM ratio (pull-down/input).

Take “GATGATTGTTCTCCCAGCTGATGAATTGCGAGGGTCGAGTAAACAAATTTTCCTAATCTTTCTGTTCAAGCGCCATCTAC”: the binding signal was 0.883 RPM ratio (pull-down/input).

Turning to “GATGATTGTTCTCCCAGCTGATGAATTCTAGCCTTCGAGTAAACAAATTTTCCTAATCTTTCTGTTCAAGCGCCATCTAC”, the binding signal was 0.921 RPM ratio (pull-down/input).

Consider “GATGATTGTTCTCCCAGCTGATGAATTTAACAAATCGAGTAAACAAATTTTCCTAATCTTTCTGTTCAAGCGCCATCTAC”, for which the binding signal was 1.19 RPM ratio (pull-down/input).

“GATGATTGTTCTCCCAGCTGATGAATTACGGTTTTCGAGTAAACAAATTTTCCTAATCTTTCTGTTCAAGCGCCATCTAC”: the binding signal was 1.01 RPM ratio (pull-down/input).

As to “GATGATTGTTCTCCCAGCTGATGAATTCGATGGTTCGAGTAAACAAATTTTCCTAATCTTTCTGTTCAAGCGCCATCTAC”, the binding signal is 0.885 RPM ratio (pull-down/input).

As for “GATGATTGTTCTCCCAGCTGATGAATTTCTGATGTCGAGTAAACAAATTTTCCTAATCTTTCTGTTCAAGCGCCATCTAC”, the binding signal was 1.23 RPM ratio (pull-down/input).

As for “GATGATTGTTCTCCCAGCTGATGAATTGCATTCATCGAGTAAACAAATTTTCCTAATCTTTCTGTTCAAGCGCCATCTAC”, the binding signal is 1.46 RPM ratio (pull-down/input).

With “GATGATTGTTCTCCCAGCTGATGAATTGACCACTTCGAGTAAACAAATTTTCCTAATCTTTCTGTTCAAGCGCCATCTAC”, the binding signal was 0.948 RPM ratio (pull-down/input).

Consider “GATGATTGTTCTCCCAGCTGATGAATTGAGATTGTCGAGTAAACAAATTTTCCTAATCTTTCTGTTCAAGCGCCATCTAC”, for which the binding signal was 1.05 RPM ratio (pull-down/input).

With “GATGATTGTTCTCCCAGCTGATGAATTAAACACATCGAGTAAACAAATTTTCCTAATCTTTCTGTTCAAGCGCCATCTAC”, the binding signal is 1.45 RPM ratio (pull-down/input).

“GATGATTGTTCTCCCAGCTGATGAATTAATGAACTCGAGTAAACAAATTTTCCTAATCTTTCTGTTCAAGCGCCATCTAC”: the binding signal was 0.838 RPM ratio (pull-down/input).

Regarding “GATGATTGTTCTCCCAGCTGATGAATTTAAGCACTCGAGTAAACAAATTTTCCTAATCTTTCTGTTCAAGCGCCATCTAC”, the binding signal was 0.988 RPM ratio (pull-down/input).

On to “GATGATTGTTCTCCCAGCTGATGAATTAGGCGCATCGAGTAAACAAATTTTCCTAATCTTTCTGTTCAAGCGCCATCTAC”, for which the binding signal was 1.26 RPM ratio (pull-down/input).

Take “GATGATTGTTCTCCCAGCTGATGAATTTTCCAGTTCGAGTAAACAAATTTTCCTAATCTTTCTGTTCAAGCGCCATCTAC”: the binding signal was 0.874 RPM ratio (pull-down/input).

With “GATGATTGTTCTCCCAGCTGATGAATTGGGGGTCTCGAGTAAACAAATTTTCCTAATCTTTCTGTTCAAGCGCCATCTAC”, the binding signal is 0.83 RPM ratio (pull-down/input).

Regarding “GATGATTGTTCTCCCAGCTGATGAATTTAGAAACTCGAGTAAACAAATTTTCCTAATCTTTCTGTTCAAGCGCCATCTAC”, the binding signal was 0.958 RPM ratio (pull-down/input).

For “GATGATTGTTCTCCCAGCTGATGAATTTAGGGAATCGAGTAAACAAATTTTCCTAATCTTTCTGTTCAAGCGCCATCTAC”, the binding signal was 0.951 RPM ratio (pull-down/input).

For the sequence “GATGATTGTTCTCCCAGCTGATGAATTTCGTCGTTCGAGTAAACAAATTTTCCTAATCTTTCTGTTCAAGCGCCATCTAC”, the binding signal was 0.912 RPM ratio (pull-down/input).

The values are drawn from PMC12820563, “FoxP3 forms a head-to-head dimer in vivo and stabilizes its multimerization on adjacent microsatellites”.
